Measured values from ChEMBL document CHEMBL4888484, “Replenishing the malaria drug discovery pipeline: Screening and hit evaluation of the MMV Hit Generation Library 1 (HGL1) against asexual blood stage Plasmodium falciparum ,using a nano luciferase reporter read-out” (2022).
The campaign covered roughly 150,000 compounds. About 540 (0.36%) showed an effect of 50% or more. This is one part of the list.

Tested on: Plasmodium falciparum
Experiment: Primary screen in NF54 nanoGlo assay, in single point, at 2uM, 72h; a lower Z score goes with more inhibition
Type: functional, Erythrocyte
Details: timepoint 72 hour

Structure (SMILES)	% Inhibition	Z score
COc1ccc(C[C@H]2CCOC3(CCN(C(=O)Cc4cccc(F)c4)CC3)C2)cc1	-3%	0.38
Cc1nn(C)c2nc(N[C@H](c3cccnc3)C(F)(F)F)sc12	13%	-1.64
COC[C@@H](O)CN(C)C(=O)c1n[nH]c2ccccc2c1=O	1%	-0.16
CCCC1(C(=O)O)NC(c2ccccc2O)C2C(=O)N(c3cccc4ccccc34)C(=O)C21 (centres undefined)	-4%	0.52
Cc1c(C2NC(=O)C3CCCCN32)cc(C#N)n1C (centres undefined)	-15%	1.31
Cc1ccc2cc1Oc1cccc(c1)CO[C@H]1CN(C(=O)Cn3nc(C)c(C)cc3=O)C[C@@H]1NC(=O)CN(C)C2=O	-8%	1.66
CCc1ccc(C(=O)N[C@H]2CCc3nccn3C2)o1	-14%	2.1
Cc1cc(C2CCC2)nc(-c2cccc(C(=O)N(C)Cc3cccnc3)c2)n1	-3%	0.46
Cc1nc(C(C)C)ncc1C(=O)N1CC[C@@H]2OCc3cccc(c3)Oc3ccc(cc3)CCC(=O)N(CCCO)CC(=O)N[C@H]2C1	-1%	0.18
Fc1ccccc1-c1noc(C2CCC(N3CCOCC3)CC2)n1 (centres undefined)	0%	-0.09
O=C1NCCN(Cc2cccc3ccccc23)[C@H]1CC(=O)N1CCCC1	-9%	1.81
CCc1nc([C@@H]2CCCN2c2ncnc3ccsc23)no1	-19%	2.08
CCCn1ccnc1C(F)(F)C(=O)N[C@H]1CCN(c2ccc(Cl)cc2)C1=O	-14%	1.46
C[C@H](O)c1cn(C2CN(C(=O)c3c[nH]nc3-c3ccc(F)c(Cl)c3)C2)nn1	-10%	1.08
O=C(NCc1ccc(O)nc1)c1cc(F)c(Cl)cc1F	-16%	1.46
NC(=O)c1ccc(-c2nc([C@@H]3C[C@@H](O)CN3)n(C3CCCCC3)n2)cc1	-7%	1.18
CC(C)OC(=O)c1ccc(NC(=O)C(C)N2CCC(CN3CCCCC3)C2)cc1 (centres undefined)	4%	-0.56
Cn1c(Cn2cncn2)nnc1C1CCN(c2ccncc2F)CC1	-14%	1.76
Cn1cnc(C(=O)N[C@@H]2[C@H]3CCO[C@H]3[C@H]2Cc2ccccc2)c1	-10%	1.56
COc1cc(CN(C)Cc2cccnc2)ccc1OC[C@@H](O)CN1CCOCC1	-9%	1.23
CC(C)(C)OC(=O)N1CC(Oc2nc3ccccc3s2)C1	-8%	0.98

Structure (SMILES)	% Inhibition	Z score
CO[C@](C)(C(=O)N1CCC12CCOCC2)C1CC1	-10%	1.04
Cn1c(=O)[nH]c(=O)c2c1nc(N1CCN(CC=Cc3ccccc3)CC1)n2Cc1ccc(Cl)cc1	6%	-1.17
CC(=O)N1CCc2[nH]cnc2C12CCN(C(=O)CCOc1ccccc1)CC2	-2%	0.39
CN1C(=O)[C@]2(Nc3ccccc3C(=O)N2CCc2ccccc2)c2ccccc21	-3%	0.48
COc1ccc(OC/C=C/CN(C)C)cc1	-6%	0.7
Cc1noc(C)c1CN(C)S(=O)(=O)c1cccnc1	3%	-0.28
O=C1CN(C(=O)Nc2cccc(F)c2)C2CCCCC2N1 (centres undefined)	34%	-3.8
Cc1cc2n(n1)CCC(=O)N2CC(=O)N(C)Cc1ccccc1	-9%	0.91
COc1ccc(C2CC3(O)CC(C#N)(C(=O)N3)C2(C#N)C#N)cc1 (centres undefined)	-11%	1.23
CC(C)CN(Cc1cc(Cl)ccc1OS(C)(=O)=O)C(=O)CC(C)(C)C	6%	-0.62
O=C(Cc1ccc(F)cc1)Nc1cc(S(=O)(=O)N2CCOCC2)ccc1Oc1ccc(F)cc1	-14%	1.22
CCCNC(=O)N1CCC[C@@]2(CCC(=O)N(CCc3ccccc3)C2)C1	-13%	1.71
Cc1ccc(CCC(=O)NCc2ccc3c(c2)OCO3)cc1	-12%	1.72
O=C(Cc1nnc(O)c2ccccc12)Nc1cccc(S(=O)(=O)N2CCCC2)c1	-17%	1.4
NC(=O)CCC(NC(=O)CCC1CCCC1)C(=O)NCC1(C(O)c2ccccc2)CC1 (centres undefined)	-2%	0.21
O=S(=O)(Cc1csc(COc2ccc(Cl)cc2)n1)C[C@H]1CCOC1	-17%	2.15
O=C(O)C1CCN(CC(Cc2ccccc2)Cc2ccccc2)CC1	-3%	0.45
COc1ccc(CCC(=O)N[C@H]2CC[C@H](Oc3nccnc3C#N)CC2)cc1	-15%	1.72
CCc1ccc(OCCN(C)C(=O)CC2=CCNCC2)cc1	-12%	2.25
O=C1NC(c2ccc(-c3cccc(Cl)c3)o2)C(C(=O)c2ccccc2)C(O)(C(F)(F)F)N1 (centres undefined)	-6%	1.11
Cn1cc(Cl)cc1C(=O)N1CCC(OCCN2CCCC2)CC1	-5%	0.63

Structure (SMILES)	% Inhibition	Z score
CCCc1nnc(N2CCC[C@@]3(CCN(C)C3)C2)o1	-10%	1.13
CCc1ccccc1S(=O)(=O)N1CC[C@H](c2nc(N(C)C)ncc2C(=O)NC(C)C)C1	-9%	1.29
COc1ccc(Cl)cc1C(=O)NC1CC2CCC(C1)N2S(C)(=O)=O (centres undefined)	-10%	1.33
CCCC(CCC)C(=O)Nc1ccccc1OC	-14%	2.59
COc1cccc(-c2cn(C)c3c(=O)n(CC(=O)Nc4ccc(C(F)(F)F)cc4)cnc23)c1	37%	-0.83
CCN(CC(=O)Nc1c(C)nn(C)c1C)[C@@H](C)C(C)C	0%	-0.05
CN(CC(N)=O)S(=O)(=O)c1cc(F)ccc1F	1%	-0.11
CCN(CC(=O)Nc1ccc(NC(C)=O)cc1)C(=O)c1cc(C)on1	-7%	1.3
CN(C)C(=O)Nc1cccc2c1C[C@@](c1ccccc1)(C(F)(F)F)O2	-16%	1.87
Cc1cc(NCCc2ccc(S(N)(=O)=O)s2)nc(C)n1	-4%	0.63
C[C@H](Oc1ccc(F)cc1)C(=O)N1CCC(c2nc3ccccc3o2)CC1	-30%	2.67
CCC(C)(C)NCC(=O)Nc1c(Br)cc(C)cc1Br	1%	-0.22
C[C@H]1c2ccsc2CCN1C(=O)c1cnn(-c2ccccc2)n1	-3%	0.52
Cc1ccc2c(C(=O)[C@H](C#N)C(=O)c3noc4c3CCCC4)c[nH]c2c1	-3%	0.59
O=C(CN1CCCCC1)Nc1ccc2c(c1)OCO2	-7%	0.61
Cc1noc(C)c1CS(=O)(=O)CC(=O)NC[C@H]1CCCO1	-8%	1.55
CN(Cc1csc(-c2ccccc2)n1)C(=O)c1cn(C2CCCCC2)nn1	-12%	1.76
CC(C)(C)C(=O)NCCC(=O)N(CC(F)(F)F)c1ccccn1	3%	-0.4
COc1nc2c(cc1CNC(=O)c1ccco1)C(=O)N(C1CCCC1)C2	-7%	0.94
COc1ccc(COCC(=O)N2CC(CC#N)C2)cn1	7%	-1.34
CCc1nn(-c2ccccc2)c(CC)c1CNC(=O)N1CC(C)C(C)(CO)C1 (centres undefined)	-12%	1.66

Structure (SMILES)	% Inhibition	Z score
Cc1cccc(CNc2nc(C)c(-c3ccn(CCO)n3)s2)c1	-3%	0.34
Cc1cccc(CN2CCC[C@@]3(CCN(C(=O)c4c(C)noc4C)C3)C2)c1	-9%	1.18
CNCc1cccc(Br)c1OC	-1%	0.17
CCC(CC)(CC(=O)O)NC(=O)[C@@H]1CCC=CCCC1	-1%	0.15
CCn1ncc(S(=O)(=O)N[C@@H]2COCC[C@@H]2OCC=C(C)C)c1C	3%	-0.47
COCC(=O)N1CCC[C@@]2(CCN(C3CCCCCCC3)C2)C1	-5%	0.75
CCCn1nnnc1CNc1cccc(C)c1C(N)=O	0%	0.06
CC(C)[C@H](Cn1nccn1)NS(=O)(=O)CCC(F)(F)F	-3%	0.62
CCc1ocnc1C(=O)N1CCC[C@H]1C(=O)Nc1ccc(-c2cscn2)cc1	-7%	0.65
COC(=O)CCNC(=O)c1nn(CC2CC2)c2c1CN(Cc1nc3ccccc3s1)CC2	2%	-0.21
Cc1ccsc1CN(C)C(=O)c1n[nH]c(=O)[nH]1	0%	0.02
Cc1cccc(NC(=O)c2sc(=S)n(C[C@H]3CCCO3)c2N)c1	1%	-0.09
O=C(Nc1ccc([C@H]2OCC(=O)N(Cc3ccc(F)cc3)[C@@H]2CO)cc1)c1cnccn1	-10%	1.48
CN(C(=O)c1ccc(CS(=O)(=O)c2ccccc2)o1)C1CCCC1	-6%	0.87
Fc1ccc(-c2nc3ccc(-c4ccc5c(c4)OCO5)cc3o2)c(F)c1F	1%	-0.1
CCN1c2cc(C)ccc2-n2cccc2C12CCN(C(=O)NCc1cccc(OC)c1)CC2	-9%	1.19
CC(C)=CCCC(C)NC[C@H]1CCCN1S(C)(=O)=O (some centres undefined)	-7%	1.25
COCC1(C(=O)N2CCC[C@H](c3nccn3Cc3ccccc3)C2)CCC1	-2%	0.26
CC[C@H](C)N(Cc1c(-c2ccccc2)noc1N1CCC(C)CC1)C(=O)c1cccs1	-2%	0.27
